According to the supplement of paper PMC3334620:
Whole data set: some 33,000 sequences, median “E-score (-0.5 to 0.5)” near -0.035, cut for the highest 2% near 0.34. Some of the results follow.

These sequences were tested against T1, Mot3 (UniProt P54785) (assay: PBM E-score (8-mer binding enrichment) (E-score (-0.5 to 0.5)); higher = stronger / more preferred TF binding; most listed sequences are background and not binding sites). Details: protein concentration: 200 nM; construct: GST-full length.
T1 sequence: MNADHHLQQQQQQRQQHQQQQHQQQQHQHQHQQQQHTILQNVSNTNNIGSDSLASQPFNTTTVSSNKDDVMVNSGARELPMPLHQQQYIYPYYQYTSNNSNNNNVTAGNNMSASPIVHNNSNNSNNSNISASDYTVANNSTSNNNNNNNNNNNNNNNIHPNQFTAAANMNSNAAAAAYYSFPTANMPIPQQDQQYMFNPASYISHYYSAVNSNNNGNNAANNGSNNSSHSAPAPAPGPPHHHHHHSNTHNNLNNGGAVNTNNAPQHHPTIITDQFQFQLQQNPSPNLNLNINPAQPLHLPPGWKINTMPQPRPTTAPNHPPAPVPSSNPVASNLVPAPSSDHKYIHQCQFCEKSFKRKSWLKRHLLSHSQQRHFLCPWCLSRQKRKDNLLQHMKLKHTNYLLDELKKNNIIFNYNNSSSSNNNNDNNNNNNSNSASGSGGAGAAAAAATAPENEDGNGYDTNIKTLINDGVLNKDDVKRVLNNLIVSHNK
In short: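 Each ungapped eight-base word and its reverse complement, pooled, received an E-score from the Universal PBM Analysis Suite. Underlying scans, normalised with masliner, recorded fluorescent anti-GST bound to GST-tagged yeast transcription factors. These were applied at about 100-200 nM to universal all-10-mer Agilent arrays double-stranded by primer extension.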

In order of rising “PBM E-score” value:
1. AGAGCCTC  -0.422
2. CGGGCTCA  -0.352
3. AGGGAGAT  -0.343
4. AAGGGACC  -0.343
5. CCCACTAG  -0.336
6. AGCCGCCA  -0.291
7. AGGGGCCA  -0.281
8. CATTAGAC  -0.271
9. CGATGGCC  -0.268
10. GCGCTCTA  -0.268
11. GCCACAGC  -0.265
12. GGGGCGAC  -0.263
13. CGGTGAGA  -0.261
14. CCCCGTGA  -0.261
15. ACCCGAGA  -0.258
16. GGTTTCGA  -0.257
17. CCGTACCC  -0.255
18. CGCCGCCA  -0.239
19. GCCACTAA  -0.238
20. AGACCCGG  -0.237
21. TATCCTCA  -0.237
22. GTGCTCCA  -0.219
23. GAGGGGTA  -0.211
24. AATGGGGG  -0.21
25. AATCCAAG  -0.202
26. AAGCATCC  -0.202
27. GATCGCGA  -0.187
28. CGGCTACC  -0.183
29. GCTCATGA  -0.182
30. ACTGCCTC  -0.176
31. GCCGTAGC  -0.166
32. CGGAGACC  -0.163
33. ACGGGAAG  -0.16
34. TCAGATGA  -0.156
35. AGAGCGAA  -0.154
36. AAGCGACG  -0.15
37. CGTAAGCC  -0.146
38. CTCGACTA  -0.143
39. AGGGAGTG  -0.142
40. ATGGGGAG  -0.135
41. CTGGAGAC  -0.134
42. AGAGGCAG  -0.133
43. CTCTGAAG  -0.132
44. ATGTCCCG  -0.131
45. CAATGCCA  -0.113
46. GGCGCATA  -0.113
47. AAACTAGC  -0.11
48. CGCCATAC  -0.104
49. CTGACAGA  -0.103
50. ACTCGGCA  -0.102
51. ACCTCTAT  -0.0993
52. AAGCAGAC  -0.0963
53. AGAATGGC  -0.0939
54. AGGCGATA  -0.0912
55. ACGGTAAG  -0.091
56. CCAGGAAG  -0.078
57. ACTGTGCT  -0.0778
58. GCACCACC  -0.0765
59. TCATCGCA  -0.0756
60. GATAGTAA  -0.0741
61. AACCATTC  -0.0709
62. AACGGGCG  -0.0705
63. ATCATCCA  -0.0672
64. AATGCGTC  -0.0642
65. ATTGGAAA  -0.0614
66. CAAGACCG  -0.0613
67. TCCGGACA  -0.0589
68. CCTCATAG  -0.0565
69. ACTAGCCC  -0.047
70. GTGAGCTA  -0.0469
71. AAACGCTA  -0.0463
72. AACGCTGC  -0.044
73. ACTGACTA  -0.0434
74. ATACGCCG  -0.0406
75. AAAGCCAC  -0.0399
76. GACGACAA  -0.0376
77. CGTCAGAG  -0.0365
78. AGTGGAAA  -0.0342
79. GAGAATAA  -0.0315
80. AAGTGTCA  -0.0296
81. GCGGGTAC  -0.0259
82. AGTTCGAT  -0.024
83. ATCTGTAG  -0.02
84. AAGTGAAC  -0.0157
85. CTGAAAGA  -0.0143
86. CTATTAAG  -0.00367
87. TCACGGAA  -0.00332
88. AACGAAAT  0.00166
89. AAGAAATC  0.00616
90. CGTACGCA  0.00657
91. GCTAGTAC  0.00779
92. CTGGCTCC  0.0141
93. AGATTGTA  0.0155
94. CGACATAG  0.0157
95. CCGAAGTA  0.0211
96. AGTTTTAT  0.0234
97. CGTTCTTA  0.0238
98. AACTCCGT  0.0245
99. TACGGAGA  0.0248
100. AAGCCGAA  0.0251
101. AACTGTAT  0.0258
102. AATAGTGA  0.0314
103. GGGCCTAC  0.0324
104. TGACTGCA  0.0356
105. GTAGGTGA  0.0361
106. AGGCCCGC  0.0393
107. ATGATACC  0.0407
108. AACCGTCT  0.0418
109. CGCAGGTC  0.0458
110. ACATCTAG  0.0465
111. GTCAAAAC  0.0484
112. CACTGGCG  0.0533
113. ACAAAAGC  0.0563
114. TAGAAGAA  0.0576
115. CAACCGAA  0.0641
116. CAGAGATA  0.0644
117. GCAGTACC  0.0693
118. AAGTAAAA  0.0731
119. ATATAAAG  0.0757
120. CCGGTAAG  0.0758
121. CACATCGC  0.0781
122. GGATAAAC  0.0805
123. TGGCCTAA  0.0826
124. TGGCATAA  0.0838
125. AACCTGCA  0.0857
126. ACATCGCC  0.0886
127. AAAGGACG  0.089
128. TGACGAAA  0.0928
129. CATGAGAC  0.0987
130. CTTCATAC  0.0988
131. AGTAAAAT  0.104
132. TGCATCAA  0.105
133. AAAACGTC  0.106
134. AAAAAGCC  0.109
135. TATCTAAA  0.112
136. AACCACAC  0.113
137. GCACACAA  0.114
138. AACTCAAA  0.117
139. CAGAGTAA  0.128
140. TATCAATA  0.134
141. AATCAACT  0.141
142. CCTACAAA  0.142
143. CAAATAAC  0.143
144. GCTCGTAA  0.148
145. TCCTGCAA  0.15
146. CAATGCAA  0.153
147. GTTTAATA  0.161
148. TCTAGACA  0.167
149. ACAGCCAT  0.172
150. CAAATGTG  0.184
151. AAAACCTA  0.186
152. GGTTACAA  0.186
153. AAAAATTG  0.192
154. CTGTACAA  0.196
155. AGCACGTG  0.199
156. AGTAATAG  0.201
157. AAGAAAGC  0.201
158. AAAGCACA  0.201
159. TAACGCGA  0.25
160. GCCTAACA  0.287
161. ATCAACAC  0.289
162. TACCTATA  0.316
163. GTGTTACA  0.326
164. AATACATA  0.329
165. CAATACAC  0.331
166. CAGGGCAC  0.332
167. ACAACACA  0.337
168. TATGTACA  0.353
169. GTACCTTA  0.355
170. TACACGGA  0.357
171. GTTCCTTA  0.428
172. AGGCAACT  0.484
